The full ranking holds about 33,000 sequences; the median of “E-score (-0.5 to 0.5)” is about -0.021, and the highest 2% start at about 0.32. The list shows a part of the results.
Molecular target: T1, Zap1 (UniProt P47043)
T1 sequence: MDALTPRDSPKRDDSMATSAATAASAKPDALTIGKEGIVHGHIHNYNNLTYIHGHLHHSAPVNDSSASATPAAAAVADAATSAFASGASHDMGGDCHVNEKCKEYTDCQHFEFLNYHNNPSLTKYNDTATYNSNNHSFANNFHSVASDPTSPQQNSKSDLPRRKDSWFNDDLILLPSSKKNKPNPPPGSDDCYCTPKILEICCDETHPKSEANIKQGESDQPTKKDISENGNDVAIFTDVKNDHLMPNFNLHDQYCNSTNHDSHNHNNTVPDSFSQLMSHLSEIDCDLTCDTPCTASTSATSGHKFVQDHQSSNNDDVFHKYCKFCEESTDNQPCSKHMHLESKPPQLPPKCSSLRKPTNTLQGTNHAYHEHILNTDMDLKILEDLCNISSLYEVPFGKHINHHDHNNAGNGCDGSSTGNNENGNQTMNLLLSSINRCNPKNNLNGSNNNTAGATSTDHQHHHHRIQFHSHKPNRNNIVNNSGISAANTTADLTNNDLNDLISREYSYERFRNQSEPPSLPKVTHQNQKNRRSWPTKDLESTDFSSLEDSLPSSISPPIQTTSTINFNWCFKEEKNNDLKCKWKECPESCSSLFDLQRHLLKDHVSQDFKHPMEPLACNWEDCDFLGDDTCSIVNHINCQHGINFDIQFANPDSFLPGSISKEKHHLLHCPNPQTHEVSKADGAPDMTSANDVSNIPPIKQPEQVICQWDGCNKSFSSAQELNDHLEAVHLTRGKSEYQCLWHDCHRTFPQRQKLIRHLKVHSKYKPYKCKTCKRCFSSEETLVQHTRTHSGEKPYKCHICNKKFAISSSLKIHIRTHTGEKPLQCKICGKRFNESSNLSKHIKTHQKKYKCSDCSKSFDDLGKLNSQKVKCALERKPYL
Experiment: PBM E-score (8-mer binding enrichment) (E-score (-0.5 to 0.5)); higher = stronger / more preferred TF binding; most listed sequences are background and not binding sites
Details: protein concentration: 200 nM; construct: GST-full length
Method in brief: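 PURExpress in vitro transcription/translation supplied GST-tagged yeast transcription factors, either full-length or DNA-binding domain. Applied at about 100-200 nM to universal all-10-mer Agilent arrays double-stranded by primer extension, the bound protein was detected with fluorescent anti-GST. E-scores, modified Wilcoxon-Mann-Whitney statistics, were given by the Universal PBM Analysis Suite to ungapped eight-base words pooled with their reverse complements after masliner normalisation.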

Sequence	PBM E-score
CTAGTACA	-0.0865
GGCTATTA	0.0192
CGTACCAA	-0.0153
CTCTGTGA	0.0873
ACCACGAA	0.191
ACGTGATG	-0.167
AAACAGCG	-0.0468
GTGGACGA	-0.14
ATGGCAGC	-0.315
CTCACTGC	-0.0511
AGGAAAAC	0.0388
GACTATTA	-0.0145
TTTAAAAA	0.0885
ATGGATAA	0.0597
CATGTAGG	-0.028
AGGGAATC	-0.204
ATAACGAT	-0.078
AGGGAAGA	-0.27
AGCCGTCG	-0.189
AAATACTG	0.0368
ACTGCGCG	-0.107
CACGGAGG	-0.015
CATACGGG	-0.0467
CAAGTATA	-0.105
ACGGCTGC	-0.121

Sequence	PBM E-score
CTCAGGAG	-0.089
CAGACTAG	-0.0657
CCATCGAA	-0.0466
CACCAGTG	-0.0732
AGTTTCAC	0.00705
CGCTGGAC	-0.277
AGAGTGGG	-0.0124
ACTTCCGC	-0.0208
CAGTTGGG	0.0345
ATAATCGA	-0.0285
CAGTTCCC	0.157
ACGCATAC	-0.101
ACCGTCGC	0.045
CGCAGTCA	-0.0913
ACATGACT	-0.251
CTATTGCA	0.0274
ACCTGTGG	0.0592
GTACAAGA	0.0938
AGCTGTTA	-0.0623
CTCCTAGA	-0.279
CAAATAGA	0.0322
AGAACCCT	0.321
AAGCTGTA	0.138
ATTGAGCA	-0.169
AAAATGAC	0.122

Sequence	PBM E-score
ACCCTCGA	0.143
CTTCAATC	-0.121
ACATTAAT	0.134
CGGAGGGC	-0.25
AACCTAGC	-0.0738
AGAGAGAG	-0.239
CCGTTGGA	-0.122
ATAACCCA	0.472
GATTGTCA	-0.0124
TCCGACGA	-0.11
TGCGTCAA	-0.105
CATTGCAC	0.062
CAATTCCC	-0.0011
ACCAATAA	0.0975
CTGCGTAA	0.0348
CACCCAAA	0.255
CTTTTGCA	0.194
AAATTCAG	-0.036
TCCAGGAA	-0.0442
CCATAGGA	0.0329
ATCCAGAG	-0.019
GAACCACC	0.132
AGTCAGCG	-0.219
GTGCAAAA	-0.0534
TCGCAAGA	-0.0187

Sequence	PBM E-score
TCCCCTAA	0.0699
CTTGACGC	-0.107
GTCGGAGA	-0.0786
ACTGCTGC	-0.147
ACTTGCGG	-0.312
ACCAGCTG	-0.0716
AAGTCAGG	0.00226
TACGTACA	-0.0868
CATATCAA	0.0465
CGCTAGGC	-0.241
GGCCCCAA	0.107
CAGGTATA	0.16
AAGATAGA	0.0134
AACGCTGG	-0.174
ACGTATTC	-0.0689
AGCCGAAT	-0.00941
GCTTCGCC	-0.31
CCTTATCG	0.158
AGGTACGC	0.107
AGTAATGC	-0.0647
AACCGAGA	0.195
CTAGCGGA	-0.16
GTAAACCA	0.138
CGAGGCTC	-0.182
CACGCGGG	0.0265

Sequence	PBM E-score
ATTCGTAG	-0.0712
CTCCCCAC	-0.136
ATTTTCAG	0.06
GCTAGCCC	-0.228
TCGACAAA	0.0744
ATCCTCTA	-0.118
GGTAAGAA	-0.00627
CATGATGC	-0.127
AACGTCGG	-0.15
ATAGCTTA	-0.0241
ATGGCTAG	-0.0721
CGTGTGCC	0.00438
ATGGCGCG	-0.0417
GCAGCCCC	-0.0536
AGGAGACC	-0.0191
CCGTGCGC	-0.0384
ACCTTACG	0.226
GGATATTA	0.156
CAACTCAG	0.0151
AGATGCAT	-0.158
GAGGAGGA	-0.316
CCCTGCCG	-0.0398
AATTATTG	0.0454
ACCGGTAA	0.286
GTGTCGTA	0.0847

Sequence	PBM E-score
AGCCAATG	-0.0742
ACCGTTAG	0.139
CCTATTAA	0.15
AATATGAC	-0.0299
CTCTCAGA	-0.229
ACTCGTGG	0.0689
CAGATAAC	0.308
GCCGTACA	0.014
CCCGCATA	0.16
AGAGAGGA	-0.245
CTTAAGCA	-0.0209
ATTTCTGC	0.0333
GTGAGAAA	0.0979
CCGCCAAC	-0.121
CCACGGGG	0.0374
AAAGAGTT	-0.0729
GTTAGAAA	-0.062
AAACAACC	0.313
AAAGTCCG	-0.158
ACCTCCAT	0.168
CCCGTTCG	-0.0827
AGACTGAA	-0.0644
AACTTGGT	0.143
CACGAGAC	-0.0591
CCGAACTA	0.133

Sequence	PBM E-score
ATTCAGAG	-0.1
GTCGGTCA	-0.173
ACGCCTAG	-0.265
AAACGGTT	0.213
CGGGTCAC	0.374
CGTATCAG	-0.0356
AGAATCGA	-0.101
CAACTAGC	0.0515
GTGCGTCA	-0.155
CTTTTAAC	0.0885
GTGCCGTA	0.114
GGTACGCA	0.141
CGGACAGA	-0.0523
CCCGGACA	0.031
TAACGTAA	0.0847
CTTATGTA	-0.0766
ATCCAGCC	-0.15
ACACGCGA	-0.132
TAGATTCA	-0.0579
CTGCTAAA	-0.0363
GCGGGACA	-0.167
AGTTACAT	-0.0596
